Test results as given in PMC12136788.
Changes are numbered by the printed parent chain. The list shows a part of the results.

T1: UNK ZnF1-3 (human, UniProt Q9C0B0 31-174)
T1 sequence: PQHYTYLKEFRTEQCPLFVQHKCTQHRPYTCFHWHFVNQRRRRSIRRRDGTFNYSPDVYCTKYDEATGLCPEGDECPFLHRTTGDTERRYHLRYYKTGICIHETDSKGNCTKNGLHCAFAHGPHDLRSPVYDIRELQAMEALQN

B1: 83080778_83080898_180_3pUTR_ENSG00000179104_ENST00000321196|human|control|control (ssRNA)
RNA: GGGAGUUCUACAGUCCGACGAUCUGGGAGGGACAAGGCGAACCGCCUCCCCUCGCCGCCUCCCGGGCGCACUGCUCCGGUGUCGCUCGGGCGGACUCCGGCCGCCAAGGCAGCUGCUGCACAUUCAAUGUUUAUUAGCUCCCUCAACAGAGGAUUGAGCAUCA
B2: chr1:39494447:39494448:+_ENSG00000168653_ENST00000372967|hu_mus|hu_hu_hu_mus_False|8_18 (ssRNA)
RNA: GGGAGUUCUACAGUCCGACGAUCGCACCGAGCGGCGUUCUUAUAGGGCUGUUCUGCGCUUAGGAACAUAAAGUGCCGGUCCAGGCUGAUGCCCAGCUUUUUCUGUAUGUCAAGGAAAGGCAUGGCCGAUGCUCGUGCUUGUCACAACAGAGGAUUGAGCAUCA
B3: chr10:72184726:72184727:+_ENSG00000148730_ENST00000373218|hu_hu|motif|central (ssRNA)
RNA: GGGAGUUCUACAGUCCGACGAUCUCAUGUUAAACUACUCCCAAAUUCUUAACCCACAGAAACUGACAGAUAAUGUUUACGGUUUUAACAUACUAAAUUUAGGGUAAUUUUUUACACAGCAAUAGAUAACUAAUACAGGUGGAACAACAGAGGAUUGAGCAUCA
B4: chr15:11913776:11913777:-_ENSMUSG00000022205_ENSMUST00000022816|mus_mus|FALSE|FALSE (ssRNA)
RNA: GGGAGUUCUACAGUCCGACGAUCGUACCACAGUUAAGAUUGUAAUGAUCUGACUUUAUUUUACACACUAGGUAGGGGGCACAAAGCAAUCCUCUUUAAUAAACUUGACAAUUAGCUUCACUUAGAACAUUUUAAUAAUGCACACAACAGAGGAUUGAGCAUCA
B5: chr16:17043922:17043923:+_ENSMUSG00000063358_ENSMUST00000069107|mus_mus|motif|central (ssRNA)
RNA: GGGAGUUCUACAGUCCGACGAUCACGGCCUGCUGCCAGAACUCUCUGGACUGAAGGAAUUCCGUGAAAGUAUAAAAGCUGCGGCGGCCAGAAACUGCCCCUCUGAAAGGCUCAAAGGAGUCAAGAGUGGGUAAGCUGAGACGGCAACAGAGGAUUGAGCAUCA
B6: chr12:48362563:48362564:+_ENSG00000134291_ENST00000256686|hu_hu|hu_hu_hu_mus_False|48_68 (ssRNA)
RNA: GGGAGUUCUACAGUCCGACGAUCUCCGUCAAGCCCUUCGAUAGACCCUUGCGGGGGAAACUGUAAUAAUUCUAACUGGGGAAGGAAAAAAAAAGCCAAAAACUUUCCAAAAAGCGGGGGUGGGGUGAGGCGGGAGGGGGAGGUCAACAGAGGAUUGAGCAUCA
B7: chr16:45382771:45382772:-_ENSMUSG00000022661_ENSMUST00000163230|mus_mus|mus_mus_mus_hu_True|8_18 (ssRNA)
RNA: GGGAGUUCUACAGUCCGACGAUCCUGGGUCAUGUUAUAAGACAAAUGGACAGGGAGGGCAUGCUUCUCAAAAAAUGUGAGCUAUUGUCUAAGACUAACAAUAUUUAUCUAGCUAUAUAAAAAUAAGUUAAAUGGACGUUAAGACAACAGAGGAUUGAGCAUCA
B8: chr14:78183846:78183847:+_ENSG00000119705_ENST00000557342|hu_hu|hu_hu_hu_mus_False|8_78 (ssRNA)
RNA: GGGAGUUCUACAGUCCGACGAUCUCUCAGAAAUCUUUCUUCAUCAGAUGUUUGAGCUGUUUGCGGAGCCUUUGCUCUUUGAGCUUGAACGUGGAUCUAUGGGAGGGAAAGCACUGUCAGAAAAGGUUGUAGUGCAUUUAAAGACAACAGAGGAUUGAGCAUCA
B9: 50811376_50811496_1883_3pUTR_ENSG00000008196_ENST00000393655|human|control|control (ssRNA)
RNA: GGGAGUUCUACAGUCCGACGAUCGCAUUGACACCAACGUUUCUCCGAUUUUCUUCCAAUAAGUUAGCGUUUUUCUCAUGUUUAGUCUUAUGUUUAUUUUCCAAAGGGAAGGGGAAAUCAUGGUUUUCUUUUAUUAUCAGUAUUCAACAGAGGAUUGAGCAUCA
B10: chr7:36537692:36537693:-_ENSMUSG00000043671_ENSMUST00000051377|mus_hu|FALSE|FALSE (ssRNA)
RNA: GGGAGUUCUACAGUCCGACGAUCCAAUUUAUUUUCCAACUUCACAUUUUCUUCUUGGGCUGGAAAGUCUUCAGAAACUUCUGUGGCUCUUAUUUCUCUUCUUUGCCGGAUGGACAUCAUGAUGUCAGACUUACAUGCAUUGUUCAACAGAGGAUUGAGCAUCA
B11: chr2:202488911:202488912:-_ENSG00000155755_ENST00000286196|hu_mus|hu_hu_hu_mus_False|58_98 (ssRNA)
RNA: GGGAGUUCUACAGUCCGACGAUCAUUGAAACAUUUUCAUAAUAUUGCAGUAGCAUUUCAGCAUUAUGUAACAAAAGAUCUAUUACAAAUACAUGUAUCUUAUAAAAAUACACUUAAAAACACGAGUGGGGAGCGCAGGCGCCACAACAGAGGAUUGAGCAUCA
B12: 89251860_89270157_1664_CDS_ENSG00000065243_ENST00000370521|human|control|control (ssRNA)
RNA: GGGAGUUCUACAGUCCGACGAUCUAAAAAAUCUUCUAACCUCAGAAAUUUUACAGCACACAGAGACCGCCAAUCACGCCAAUAAACUGAAAUUUCCAGUUCACGUGACCUGUCCAGUUCCAGUGUAAACUUCUGGUCCCAUGACAACAGAGGAUUGAGCAUCA
B13: chr2:48026839:48026840:+_ENSG00000116062_ENST00000540021|hu_hu|hu_hu_hu_mus_False|58_108 (ssRNA)
RNA: GGGAGUUCUACAGUCCGACGAUCAUAGUGUGCCACUAGCGUCCUAAAUCUGGAACAGUGGCGGUCAUCCGAAAACUGACCUAUGAAAAACUUGCCCAGUGAAGUGUCCACAAAGCAAACACCAUACACACGAGUGUGACCAGACAACAGAGGAUUGAGCAUCA
B14: 114308989_114309865_2673_3pUTR_ENSMUSG00000021143_ENSMUST00000084891|mouse|control|control (ssRNA)
RNA: GGGAGUUCUACAGUCCGACGAUCAGAAGGUGGCUUUGGAGUGUCCAAAGAUGCAGAUGGGGAAGUGCUUCACGUGAGAAGACCACUGGGCAGCCAGCUGGAAGAACUUGACAUCGCUGCAUUCCACGCCGUCGAUGAGGACCCCAACAGAGGAUUGAGCAUCA
B15: chr11:95532463:95532464:+_ENSG00000166037_ENST00000540830|hu_mus|FALSE|FALSE (ssRNA)
RNA: GGGAGUUCUACAGUCCGACGAUCCUUAUUUGGGGAGCGUCUCAGAUCACUGUUAAGGAAAGGCUUAUCAGGUGGAUACAAUACAUAUGGAGACGAAGAAUGACGAACCAUAUUUCCAUUAGACCUUGAUGGUUCAGCUAGGACCAACAGAGGAUUGAGCAUCA
B16: chr20:32246340:32246341:-_ENSG00000125967_ENST00000246190|hu_mus|FALSE|FALSE (ssRNA)
RNA: GGGAGUUCUACAGUCCGACGAUCUCUCCAGGAGGCUUCAUCCUGCCAGAACUCAUACAGGGUGAAAGCAGCAUUGUCUAGCAUCUUCUGGGCAGACACAUGCAGACAAUGGCUUUGGGCCCCUGUGAAGUUCAUGUAGCAGCACAACAGAGGAUUGAGCAUCA
B17: chrX:70775091:70775092:+_ENSG00000147162_ENST00000373719|hu_mus|FALSE|FALSE (ssRNA)
RNA: GGGAGUUCUACAGUCCGACGAUCAUCGGGGAAAUGGGGUUGCAGUUCGAUAGCUCUCCUGUAGGUAUCAAUGGCCAGGUCUAUUAGGCCUUGCUCGUAGUACACACAAGCCAGGUUGCCGUGCACCACCGCAUGAUUUGGGCUCAACAGAGGAUUGAGCAUCA
B18: 116096438_116096558_1552_3pUTR_ENSMUSG00000029518_ENSMUST00000031492|mouse|control|control (ssRNA)
RNA: GGGAGUUCUACAGUCCGACGAUCAGGAAAUAAUCGUGAGGAACUUAGUUCAUUUGAUUUGGCUUCAUUGGCUGUAUUUGUUAAAAUGCUCCUCCUUGCGAGCUCCGUCUCUUUACAGAUGUCCCACUACCUUUCUGCGGGAACCAACAGAGGAUUGAGCAUCA
B19: 110068728_110068848_708_CDS_ENSG00000119318_ENST00000358015|human|control|control (ssRNA)
RNA: GGGAGUUCUACAGUCCGACGAUCAGGUGCAGGUUCAGAAGAUGCUGUCGCUGAUGCUGGAGUGAUGGAUGCAGGUGUGGAAGUGGGGGCCAAGGCAGGGACAGGGGUUGGAGCCUGAGCCACAGUUGUGGUGGUGGAGGAAGUCAACAGAGGAUUGAGCAUCA
B20: chr12:111168485:111168486:-_ENSG00000186298_ENST00000335007|hu_mus|FALSE|FALSE (ssRNA)
RNA: GGGAGUUCUACAGUCCGACGAUCCAAGAGGCAGAUUGUCUCCAGGGACUGCUUGCCCCUGUCCACAUAGUCCCCGAGAAACAAAUAGUUGCUCUCUGGAGGAAAGCCACCGUAUUCAAACAGACGGAGCAAAUCAUAGUACUGCAACAGAGGAUUGAGCAUCA
B21: 27682458_27683508_6835_CDS_ENSMUSG00000022263_ENSMUST00000090247|mouse|control|control (ssRNA)
RNA: GGGAGUUCUACAGUCCGACGAUCAGGCAGAAGUCCUGCGUCUUGAUCUGUGACCAGGAAUGUGUCCUGUAAGAGCAGUUUACCCUGGGCAACAAUUUUACCGUCAAAUCCCUGCAGCCGCCCGACGUUCAUCAUGUCAUUACACAACAGAGGAUUGAGCAUCA
B22: chr2:48026839:48026840:+_ENSG00000116062_ENST00000540021|hu_hu|hu_hu_hu_mus_False|88_98 (ssRNA)
RNA: B13 RNA with U30A, C39A, G51C, A78G, U81G

The binders below were run against T1, UNK ZnF1-3 (assay: nsRBNS (natural sequence RNA bind-n-seq); RBNS binding buffer (assumed for nsRBNS): 25 mM Tris pH 7.5, 150 mM KCl, 3 mM MgCl2, 0.01% Triton X-100, 500 ug/ml BSA, 20 U/ml SUPERase-In, 4 C; UNK is unkempt and MSI1 is Musashi-1; names of the RNAs are library labels; protein concentration not given here; high values mean tight binding).

Question: Which binding signal does the source give for B1 here?
Answer: Its binding signal is 0.656 enrichment R.

Question: For B2, which binding signal is on record?
Answer: Its binding signal is 0.801 enrichment R.

Question: B3 was tested. Which binding signal did it give?
Answer: Its binding signal is 0.665 enrichment R.

Question: Which binding signal does the source give for B4 here?
Answer: The binding signal was 1.38 enrichment R.

Question: With B5 as the binder, how does the binding signal read?
Answer: Its binding signal is 1.16 enrichment R.

Question: How did the binding signal turn out when B6 was run?
Answer: The binding signal was 2.81 enrichment R.

Question: Which binding signal does the source give for B7 here?
Answer: The binding signal was 2.36 enrichment R.

Question: Which binding signal does the source give for B8 here?
Answer: The binding signal was 1.69 enrichment R.

Question: Which binding signal does the source give for B9 here?
Answer: Its binding signal is 0.547 enrichment R.

Question: With B10 as the binder, how does the binding signal read?
Answer: The binding signal was 0.431 enrichment R.

Question: B11 was tested. Which binding signal did it give?
Answer: The binding signal was 0.935 enrichment R.

Question: For B12, which binding signal is on record?
Answer: Its binding signal is 0.869 enrichment R.

Question: With B13 as the binder, how does the binding signal read?
Answer: The binding signal was 0.971 enrichment R.

Question: For B14, which binding signal is on record?
Answer: The binding signal was 1.46 enrichment R.

Question: Which binding signal does the source give for B15 here?
Answer: Its binding signal is 1.93 enrichment R.

Question: Which binding signal does the source give for B16 here?
Answer: The binding signal was 0.442 enrichment R.

Question: For B17, which binding signal is on record?
Answer: Its binding signal is 0.409 enrichment R.

Question: Which binding signal does the source give for B18 here?
Answer: Its binding signal is 0.542 enrichment R.

Question: How did the binding signal turn out when B19 was run?
Answer: Its binding signal is 1.7 enrichment R.

Question: For B20, which binding signal is on record?
Answer: Its binding signal is 1.05 enrichment R.

Question: With B21 as the binder, how does the binding signal read?
Answer: The binding signal was 0.976 enrichment R.

Question: B22 was tested. Which binding signal did it give?
Answer: The binding signal was 1.06 enrichment R.
